Here are results for 1 compound from patent US20240409576A1, “-ent-19-norprogesterone, compositions and uses thereof to treat traumatic brain injury (TBI), including concussions-” (Oragenics, Inc., priority 2015, published 2024).

How the values of the data set were obtained: An Example of an ent-19-norprogesterone (PRV-002) solution that is used in accordance with Examples 26 and 27.
The PRV-002 solution is prepared by adding about 30 mg of PRV-001 compound to about 1 ml of 35.8% 2-Hydroxypropyl-p-cyclodextrin. Solution is hazy after mixing for about 60 min. Then about 0.1 ml of about 35.8% 2-Hydroxypropyl-P-cyclodextrin is added to about 1 ml of PRV-002-Cyclodextrin mixture. Solution is hazy after mixing for about 120 min. Additional 0.1 ml of about 35.8% 2-Hydroxypropyl-p-cyclodextrin is added to about 1.1 ml of PRV-002-Cyclodextrin mixture and left on mixing overnight (0/N). […] About 0.1 ml more of about 35.8% 2-Hydroxypropyl-p-cyclodextrin is added to about 1.2 ml of PRV-002-Cyclodextrin mixture. Addition of another about 0.3 ml (0.1+0.1+0.1) aliquot of about 35.8% 2-Hydroxypropyl-p-cyclodextrin only slightly improves the clarity of PRV-002 solution. It is believed that PRV-002 is in solution at about 23 mg/mi, and slight haziness is some sort of an artifact.

Take `CC(=O)[C@@H]1CC[C@@H]2[C@H]3CCC4=CC(=O)CC[C@H]4[C@@H]3CC[C@]21C` (single isomer, unassigned; ent-19) [PRV-002, ent-19-norpregn-4-ene-3,20-dione]: where the note is “30 mg PRV-002 in ~1.3 ml Solution 1 (35.8% 2-Hydroxypropyl-β-cyclodextrin)”, the “Final Calculated concentration” value was 23 mg/mL. The “Concentration at which PRV-002 is believed to be in solution” value (about 35.8% 2-Hydroxypropyl-p-cyclodextrin, ~1.3 ml) was “about 23 mg/mi”.
